The test concerns murine bone marrow-derived macrophages (BMDMs). In words: Transcriptional profiling of BMDMs (Nanostring). The settings on record: 1 mM ddhC, RNA at 8 and 24 hours.

Each structure is given as a SMILES string.

Consider `Nc1ccn([C@@H]2OC(CO)=C[C@H]2O)c(=O)n1` [ddhC], for which the “expression profile of BMDMs” value is reported as “adopt expression profiles typically associated with anti-inflammatory phenotypes”.

The values above are taken from patent US20230138178A1, “Methods and Compositions for Producing a Heterologous Antiviral Compound in a Host Cell” (priority 2019, published 2023).
